# In patent US6034064A, “Peptides and therapeutic agent for autoimmune diseases containing the same” (Hoechst Pharmaceuticals & Chemicals K.K., priority 1995, dated 2000):
# Where two headings read alike, the source gives them in different places. No end group written: not given here.
# System: rat carrageenin-induced paw edema model
# Protocol: To physiological saline, λ-carrageenin ("PICNIN-A", Zushi Chemical Co.) was added at the final concentration of 1 w/v %, and it was heated in a boiling water bath to dissolve I-carrageenin completely. The resulting solution was then allowed to stand at room temperature. Before the experiment, the solution was dissolved completely by heating in a boiling water bath and was allowed to stand in a water bath of about 60iC until administration. Immediately after 50 μl of Peptide (I) of the present invention or physiological saline (non-administered group) were administered subcutaneously to the left leg of Splague-Dawley rats (6 weeks old, male), 50 μl of the 1% carrageenin solution were administered to the same site. The paw volume was measured using plethysmometer (product of BM Instrument Co.) every one hour for 5 hours after carrageenin administration. Incidentally, each group consisted of 10 rats and Dunnets two tail method was used for statistical analysis.
sequence,measurement,setting,value
"AKLTFGKGT [Peptide (I), Ala-Lys-Leu-Thr-Phe-Gly-Lys-Gly-Thr]",onset of edema,"10 μg/site, five hours after carrageenin",tendency to suppress the edema onset was observed
same,onset of edema,"10 μg/site, two hours on and after carrageenin, significant difference of 5%",suppressed
same,onset of edema,one hour after the administration of carrageenin,tended to be suppressed
